The target in one assay is T1, ISLR-GFP (human), O14498.
T1 chain: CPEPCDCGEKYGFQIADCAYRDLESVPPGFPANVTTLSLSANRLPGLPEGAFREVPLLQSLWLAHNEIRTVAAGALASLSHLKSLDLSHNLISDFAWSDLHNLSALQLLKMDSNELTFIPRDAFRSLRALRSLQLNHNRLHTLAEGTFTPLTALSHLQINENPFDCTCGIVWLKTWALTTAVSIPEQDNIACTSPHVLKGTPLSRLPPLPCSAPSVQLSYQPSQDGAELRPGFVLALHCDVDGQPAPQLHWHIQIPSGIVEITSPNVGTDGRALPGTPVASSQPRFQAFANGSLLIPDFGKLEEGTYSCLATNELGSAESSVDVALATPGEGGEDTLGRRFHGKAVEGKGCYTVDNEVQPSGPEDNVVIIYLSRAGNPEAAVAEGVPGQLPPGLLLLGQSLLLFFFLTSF
The assay can be described thus: flow cytometry on cells; high-throughput cell-cell screen: HEK293F query cells (C-terminal mCherry fusion) mixed 1:1 in 96-well format with cells each expressing one member of the Ig/TNFR superfamily library (C-terminal GFP); double-positive events as % bound; PBS 0.2% BSA, pH 7.4. The conditions noted are these: remark: other sources report otherwise. For orientation: In flow cytometry, cells or beads pass a laser one at a time.

The target in assay [1] is T2, ISLR2-GFP (human), Q6UXK2.
T2 chain: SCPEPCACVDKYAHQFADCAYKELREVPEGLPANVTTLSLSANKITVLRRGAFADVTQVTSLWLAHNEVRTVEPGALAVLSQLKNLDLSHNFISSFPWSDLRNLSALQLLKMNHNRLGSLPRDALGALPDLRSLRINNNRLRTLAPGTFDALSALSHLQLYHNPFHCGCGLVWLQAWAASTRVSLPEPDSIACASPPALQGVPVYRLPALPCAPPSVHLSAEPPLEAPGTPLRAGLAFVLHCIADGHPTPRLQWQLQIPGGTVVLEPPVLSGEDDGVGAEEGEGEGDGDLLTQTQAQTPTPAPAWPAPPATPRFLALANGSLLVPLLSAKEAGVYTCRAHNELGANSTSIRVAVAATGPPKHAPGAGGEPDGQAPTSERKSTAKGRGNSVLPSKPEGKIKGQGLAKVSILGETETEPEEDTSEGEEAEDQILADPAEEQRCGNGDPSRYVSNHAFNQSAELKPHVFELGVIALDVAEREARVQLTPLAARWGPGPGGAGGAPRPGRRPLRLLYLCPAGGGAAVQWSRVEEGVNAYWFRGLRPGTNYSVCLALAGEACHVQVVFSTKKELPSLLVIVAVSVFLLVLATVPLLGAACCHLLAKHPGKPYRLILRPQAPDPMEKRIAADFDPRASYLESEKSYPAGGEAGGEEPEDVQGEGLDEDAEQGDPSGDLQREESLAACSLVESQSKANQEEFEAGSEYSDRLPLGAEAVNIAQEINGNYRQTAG
The assay is described as above. The conditions noted are these: remark: other sources report otherwise.

This passage reports binding results from article PMC9663165.

Results are given in words; binding and its absence hold for the method and conditions named. Tags and fused reporters may be left off the sequences shown.

B1: human p75 neurotrophin receptor-GFP, P08138 29-427 (receptor)
chain: KEACPTGLYTHSGECCKACNLGEGVAQPCGANQTVCEPCLDSVTFSDVVSATEPCKPCTECVGLQSMSAPCVEADDAVCRCAYGYYQDETTGRCEACRVCEAGSGLVFSCQDKQNTVCEECPDGTYSDEANHVDPCLPCTVCEDTERQLRECTRWADAECEEIPGRWITRSTPPEGSDSTAPSTQEPEAPPEQDLIASTVAGVVTTVMGSSQPVVTRGTTDNLIPVYCSILAAVVVGLVAYIAFKRWNSCKQNKQGANSRPVNQTPPPEGEKLHSDSGISVDSQSLHDQQPHTQTASGQALKGDGGLYSSLPPAKREEVEKLLNGSAGDTWRHLAGELGYQPEHIDSFTHEACPVRALLASWATQDSATLDALLAALRRIQRADLVESLCSESTATSPV
For B1, the binding entry with ISLR-GFP (human), O14498 is “no binding”.

B2: human B7-1-mCherry fusion protein, P33681 35-288 (ligand)
chain: VIHVTKEVKEVATLSCGHNVSVEELAQTRIYWQKEKKMVLTMMSGDMNIWPEYKNRTIFDITNNLSIVILALRPSDEGTYECVVLKYEKDAFKREHLAEVTLSVKADFPTPSISDFEIPTSNIRRIICSTSGGFPEPHLSWLENGEELNAINTTVSQDPETELYAVSSKLDFNMTTNHSFMCLIKYGHLRVNQTFNWNTTKQEHFPDNLLPSWAITLISVNGIFVICCLTYCFAPRCRERRRNERLRRESVRPV
Regarding B2, the binding result in assay [1] was “no binding”.
